For assay [1], the system named is human breast cancer cells MDA-MB-453. The assay can be described thus: In vitro cell killing assay (CTG). It counts as cell-based. Particulars: MDA-MB-453, relative to SIB001-DXd.
The target of assay [2] is human EGFR (Homo sapiens, UniProt P00533). Put plainly: ELISA detection of affinity. It counts as binding. Particulars: relative to SIB001-DXd.
The test system of assay [3] is H508 tumor-bearing mouse model. The assay can be described thus: Anti-tumor effect in H508 tumor-bearing mouse model. It counts as in vivo, BALB/c NUDE mice. The conditions noted are these: H508, 10 mg/kg QWx2 intraperitoneal injection, day 55. The protocol:
(§1) The mice were domesticated for 3 days after arrival, and then the study began.
Measurement of tumor volume: the maximum long axis (L) and maximum wide axis (W) of the tumor were measured using a vernier caliper, and the tumor volume was calculated as follows: V=L×W^2/2. Body weight was measured using an electronic balance. Table 1. Experimental design

Assay [4] deals with NUGC-4 tumor-bearing mouse model. Put plainly: Anti-tumor effect in NUGC-4 tumor-bearing mouse model. It counts as in vivo, BALB/c-NUDE mice. Particulars: NUGC-4, 10 mg/kg single dose intraperitoneal injection, day 32. An excerpt: In the present experiment, the BALB/c NUDE mice inoculated with NUGC-4 cells were used for determining the anti-tumor effect of the EGFR/HER3-ADCs.
The female BALB/c-NUDE mice were purchased from Beijing Vital River Laboratory Animal Technology Co., Ltd, with the grade of SPF, the quality control department is Beijing Vital River Laboratory Animal Technology Co., Ltd, and the certificate number was NO.110011230103807533. The mice were domesticated for 3 days after arrival, and then the study began.
NUGC-4 cells were purchased from NIBIOHN (CAT #: JCRB0834) and routinely subcultured in strict accordance with the instructions for subsequent in vivo experiments. The cells were collected by centrifugation, resuspended in sterile PBS and adjusted to a cell density of 20×10^6 cells/ml. […]
Tumor volume of each mouse was measured 13 days after tumor cell inoculation, the mice with tumor volumes about 200 mm^3 were selected and grouped on average according to their tumor volume (7 mice per group). […] Administrations were conducted on day 13 after inoculation respectively, and the tumor volume and body weight of mice were monitored twice a week. […] Measurement of tumor volume: the maximum long axis (L) and maximum wide axis (W) of the tumor were measured using a vernier caliper, and the tumor volume was calculated as follows: V=L×W^2/2. Body weight was measured using an electronic balance. […]

For assay [5], the system named is SW620 tumor-bearing mouse model. Put plainly: Anti-tumor effect in SW620 tumor-bearing mouse model. It counts as in vivo, BALB/c-NUDE mice. Particulars: SW620, 10 mg/kg QWx3 intraperitoneal injection, day 42. As to the method: as §1
Measurement of tumor volume: the maximum long axis (L) and maximum wide axis (W) of the tumor were measured using a vernier caliper, and the tumor volume was calculated as follows: V=L×W^2/2. Body weight was measured using an electronic balance. Table 5. Experimental design

The test system of assay [6] is ASPC1 tumor-bearing mouse model. Put plainly: Anti-tumor effect in ASPC1 tumor-bearing mouse model. It counts as in vivo, BALB/c-NUDE mice. Particulars: ASPC1, 10 mg/kg QWx3 intraperitoneal injection, day 28. As to the method: Measurement of tumor volume: the maximum long axis (L) and maximum wide axis (W) of the tumor were measured using a vernier caliper, and the tumor volume was calculated as follows: V=L×W^2/2. Body weight was measured using an electronic balance. Table 7. Experimental design

In assay [7] the test system is NCI-H1568 tumor-bearing mouse model. The assay can be described thus: Anti-tumor effect in NCI-H1568 tumor-bearing mouse model. The conditions noted are these: NCI-H1568, 10 mg/kg QWx3 intraperitoneal injection, day 30. The format is in vivo, BALB/c-NUDE mice. The protocol:
as §1
Measurement of tumor volume: the maximum long axis (L) and maximum wide axis (W) of the tumor were measured using a vernier caliper, and the tumor volume was calculated as follows: V=L×W^2/2. Body weight was measured using an electronic balance. […] Experimental design

B1: Duligo-LC1-NT3 (conjugate)
heavy: EVQLVESGGGLVQPGGSLRLSCAASGFTLSGDWIHWVRQAPGKGLEWVGEISAAGGYTDYADSVKGRFTISADTSKNTAYLQMNSLRAEDTAVYYCARESRVSFEAAMDYWGQGTLVTVSSASTKGPSVFPLAPSSKSTSGGTAALGCLVKDYFPEPVTVSWNSGALTSGVHTFPAVLQSSGLYSLSSVVTVPSSSLGTQTYICNVNHKPSNTKVDKKV[human IgG1 Fc with changes not shown]
light: DIQMTQSPSSLSASVGDRVTITCRASQNIATDVAWYQQKPGKAPKLLIYSASFLYSGVPSRFSGSGSGTDFTLTISSLQPEDFATYYCQQSEPEPYTFGQGTKVEIKGQPKAAPSVTLFPPSSEELQANKATLVCLISDFYPGAVTVAWKADSSPVKAGVCTTTPSCQSNNKYAASSYLSLTPEQWKSHRSYSCQVTHEGSTVEKTVAPTECS
For the molecule B1, in assay [1], the “reduction in IC50” value was “approximately 250 fold”. The “decrease in Kd” value in assay [2] was “approximately 2.5 fold”. The TGI is reported as 147% in assay [3]; 95% in assay [4]; 100% in assay [5]; 75% in assay [6]; 81% in assay [7]. For the same molecule, the Tumor volume in assay [3] is 44 mm^3; in assay [4], 220 mm^3; in assay [5], 220 mm^3; in assay [6], 314 mm^3; in assay [7] it was 332 mm^3.

Source of the values: patent EP4810521A1, “ANTI-EGFR AND -HER3 BISPECIFIC ANTIBODY-DRUG CONJUGATE AND USE THEREOF” (priority 2023, dated 2025).
